Some of the results follow. The list includes weakly bound sequences.

This test has as its target T1, MBP-FoxP3dN (UniProt Q99JB6).
T1 sequence: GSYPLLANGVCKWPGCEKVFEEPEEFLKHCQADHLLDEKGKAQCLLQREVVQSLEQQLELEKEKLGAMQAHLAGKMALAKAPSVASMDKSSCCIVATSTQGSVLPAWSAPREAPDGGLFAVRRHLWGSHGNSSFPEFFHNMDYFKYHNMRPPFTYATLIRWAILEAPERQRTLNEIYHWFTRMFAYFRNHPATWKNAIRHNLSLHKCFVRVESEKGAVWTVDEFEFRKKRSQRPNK
The experiment in a line: PD-seq (MBP pull-down with sequencing). To be noted: 20 mM Tris-HCl pH 7.5, 100 mM NaCl, 1.5 mM MgCl2, 0.4 uM protein, 0.1 uM dsDNA library, 30 min, room temperature, amylose pull-down; high values mean tight binding; double strand, one strand shown.
Turning to “GATGATTGTTCTCCCAGCTGATGAATTCTCAAATTCGAGTAAACAAATTTTCCTAATCTTTCTGTTCAAGCGCCATCTAC”, the binding signal (RPM ratio (pull-down/input)) came out at 0.233.

As for “GATGATTGTTCTCCCAGCTGATGAATTATCAGCGTCGAGTAAACAAATTTTCCTAATCTTTCTGTTCAAGCGCCATCTAC”, the binding signal (RPM ratio (pull-down/input)) is 0.46.

“GATGATTGTTCTCCCAGCTGATGAATTGTGTGTGTCGAGTAAACAAATTTTCCTAATCTTTCTGTTCAAGCGCCATCTAC”: the binding signal (RPM ratio (pull-down/input)) turned out to be 5.21.

Consider “GATGATTGTTCTCCCAGCTGATGAATTGATCTCCTCGAGTAAACAAATTTTCCTAATCTTTCTGTTCAAGCGCCATCTAC”, for which the binding signal (RPM ratio (pull-down/input)) was 0.3.

Take “GATGATTGTTCTCCCAGCTGATGAATTTATCCGATCGAGTAAACAAATTTTCCTAATCTTTCTGTTCAAGCGCCATCTAC”: the binding signal (RPM ratio (pull-down/input)) stood at 0.279.

For the sequence “GATGATTGTTCTCCCAGCTGATGAATTTAATCAGTCGAGTAAACAAATTTTCCTAATCTTTCTGTTCAAGCGCCATCTAC”, the binding signal (RPM ratio (pull-down/input)) worked out at 0.294.

As for “GATGATTGTTCTCCCAGCTGATGAATTACAGCACTCGAGTAAACAAATTTTCCTAATCTTTCTGTTCAAGCGCCATCTAC”, the binding signal (RPM ratio (pull-down/input)) stood at 0.595.

Regarding “GATGATTGTTCTCCCAGCTGATGAATTACTTTGATCGAGTAAACAAATTTTCCTAATCTTTCTGTTCAAGCGCCATCTAC”, the binding signal (RPM ratio (pull-down/input)) turned out to be 0.326.

On to “GATGATTGTTCTCCCAGCTGATGAATTTGGTTAGTCGAGTAAACAAATTTTCCTAATCTTTCTGTTCAAGCGCCATCTAC”, for which the binding signal (RPM ratio (pull-down/input)) turned out to be 2.03.

Turning to “GATGATTGTTCTCCCAGCTGATGAATTACTGATCTCGAGTAAACAAATTTTCCTAATCTTTCTGTTCAAGCGCCATCTAC”, the binding signal (RPM ratio (pull-down/input)) amounted to 0.328.

In the case of “GATGATTGTTCTCCCAGCTGATGAATTAGGGCGGTCGAGTAAACAAATTTTCCTAATCTTTCTGTTCAAGCGCCATCTAC”, the binding signal (RPM ratio (pull-down/input)) amounted to 0.305.

Turning to “GATGATTGTTCTCCCAGCTGATGAATTTTGTTGGTCGAGTAAACAAATTTTCCTAATCTTTCTGTTCAAGCGCCATCTAC”, the binding signal (RPM ratio (pull-down/input)) came to 7.07.

With “GATGATTGTTCTCCCAGCTGATGAATTCCTCACATCGAGTAAACAAATTTTCCTAATCTTTCTGTTCAAGCGCCATCTAC”, the binding signal (RPM ratio (pull-down/input)) came to 0.377.

For “GATGATTGTTCTCCCAGCTGATGAATTCACGTTGTCGAGTAAACAAATTTTCCTAATCTTTCTGTTCAAGCGCCATCTAC”, the binding signal (RPM ratio (pull-down/input)) was determined as 0.685.

Regarding “GATGATTGTTCTCCCAGCTGATGAATTTTTGGAATCGAGTAAACAAATTTTCCTAATCTTTCTGTTCAAGCGCCATCTAC”, the binding signal (RPM ratio (pull-down/input)) is 0.241.

For the sequence “GATGATTGTTCTCCCAGCTGATGAATTAAGGCACTCGAGTAAACAAATTTTCCTAATCTTTCTGTTCAAGCGCCATCTAC”, the binding signal (RPM ratio (pull-down/input)) was 0.76.

As for “GATGATTGTTCTCCCAGCTGATGAATTATGTTTGTCGAGTAAACAAATTTTCCTAATCTTTCTGTTCAAGCGCCATCTAC”, the binding signal (RPM ratio (pull-down/input)) turned out to be 7.57.

Consider “GATGATTGTTCTCCCAGCTGATGAATTTGTAGTGTCGAGTAAACAAATTTTCCTAATCTTTCTGTTCAAGCGCCATCTAC”, for which the binding signal (RPM ratio (pull-down/input)) stood at 5.37.

For the sequence “GATGATTGTTCTCCCAGCTGATGAATTCATGGATTCGAGTAAACAAATTTTCCTAATCTTTCTGTTCAAGCGCCATCTAC”, the binding signal (RPM ratio (pull-down/input)) amounted to 0.338.

Take “GATGATTGTTCTCCCAGCTGATGAATTACTCGTCTCGAGTAAACAAATTTTCCTAATCTTTCTGTTCAAGCGCCATCTAC”: the binding signal (RPM ratio (pull-down/input)) worked out at 0.295.

In the case of “GATGATTGTTCTCCCAGCTGATGAATTACATGCCTCGAGTAAACAAATTTTCCTAATCTTTCTGTTCAAGCGCCATCTAC”, the binding signal (RPM ratio (pull-down/input)) came out at 0.891.

As for “GATGATTGTTCTCCCAGCTGATGAATTGGGGAGGTCGAGTAAACAAATTTTCCTAATCTTTCTGTTCAAGCGCCATCTAC”, the binding signal (RPM ratio (pull-down/input)) was 0.235.

Consider “GATGATTGTTCTCCCAGCTGATGAATTTGTACCGTCGAGTAAACAAATTTTCCTAATCTTTCTGTTCAAGCGCCATCTAC”, for which the binding signal (RPM ratio (pull-down/input)) is 2.56.

In the case of “GATGATTGTTCTCCCAGCTGATGAATTGTCCAATTCGAGTAAACAAATTTTCCTAATCTTTCTGTTCAAGCGCCATCTAC”, the binding signal (RPM ratio (pull-down/input)) was found to be 0.282.

In the case of “GATGATTGTTCTCCCAGCTGATGAATTCAACTGGTCGAGTAAACAAATTTTCCTAATCTTTCTGTTCAAGCGCCATCTAC”, the binding signal (RPM ratio (pull-down/input)) stood at 0.264.

As for “GATGATTGTTCTCCCAGCTGATGAATTCGGAACCTCGAGTAAACAAATTTTCCTAATCTTTCTGTTCAAGCGCCATCTAC”, the binding signal (RPM ratio (pull-down/input)) is 0.269.

Take “GATGATTGTTCTCCCAGCTGATGAATTTTACCTGTCGAGTAAACAAATTTTCCTAATCTTTCTGTTCAAGCGCCATCTAC”: the binding signal (RPM ratio (pull-down/input)) amounted to 0.339.

Turning to “GATGATTGTTCTCCCAGCTGATGAATTAATCTTTTCGAGTAAACAAATTTTCCTAATCTTTCTGTTCAAGCGCCATCTAC”, the binding signal (RPM ratio (pull-down/input)) turned out to be 0.33.

Take “GATGATTGTTCTCCCAGCTGATGAATTCCTTGAATCGAGTAAACAAATTTTCCTAATCTTTCTGTTCAAGCGCCATCTAC”: the binding signal (RPM ratio (pull-down/input)) amounted to 0.187.

Take “GATGATTGTTCTCCCAGCTGATGAATTTTTCGTGTCGAGTAAACAAATTTTCCTAATCTTTCTGTTCAAGCGCCATCTAC”: the binding signal (RPM ratio (pull-down/input)) is 0.363.

Take “GATGATTGTTCTCCCAGCTGATGAATTCGCGAAGTCGAGTAAACAAATTTTCCTAATCTTTCTGTTCAAGCGCCATCTAC”: the binding signal (RPM ratio (pull-down/input)) was 0.226.

In the case of “GATGATTGTTCTCCCAGCTGATGAATTGACTAGGTCGAGTAAACAAATTTTCCTAATCTTTCTGTTCAAGCGCCATCTAC”, the binding signal (RPM ratio (pull-down/input)) came to 0.244.
